# In all, about 310,000 compounds went through this assay and about 14,000 (4.5%) showed an effect of 50% or more. Effects have a minus sign here. The list shows a part of the results.
# Target: human ether-à-go-go-related gene (hERG) potassium channel (human, UniProt Q12809)
# Assay: primary screen, population patch clamp on CHO cells stably expressing hERG
# 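Note: peak tail current of the secondary pulse compared with the same well before compound.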
# human ether-à-go-go-related gene (hERG) potassium channel, sequence (Q12809 whole entry, looked up): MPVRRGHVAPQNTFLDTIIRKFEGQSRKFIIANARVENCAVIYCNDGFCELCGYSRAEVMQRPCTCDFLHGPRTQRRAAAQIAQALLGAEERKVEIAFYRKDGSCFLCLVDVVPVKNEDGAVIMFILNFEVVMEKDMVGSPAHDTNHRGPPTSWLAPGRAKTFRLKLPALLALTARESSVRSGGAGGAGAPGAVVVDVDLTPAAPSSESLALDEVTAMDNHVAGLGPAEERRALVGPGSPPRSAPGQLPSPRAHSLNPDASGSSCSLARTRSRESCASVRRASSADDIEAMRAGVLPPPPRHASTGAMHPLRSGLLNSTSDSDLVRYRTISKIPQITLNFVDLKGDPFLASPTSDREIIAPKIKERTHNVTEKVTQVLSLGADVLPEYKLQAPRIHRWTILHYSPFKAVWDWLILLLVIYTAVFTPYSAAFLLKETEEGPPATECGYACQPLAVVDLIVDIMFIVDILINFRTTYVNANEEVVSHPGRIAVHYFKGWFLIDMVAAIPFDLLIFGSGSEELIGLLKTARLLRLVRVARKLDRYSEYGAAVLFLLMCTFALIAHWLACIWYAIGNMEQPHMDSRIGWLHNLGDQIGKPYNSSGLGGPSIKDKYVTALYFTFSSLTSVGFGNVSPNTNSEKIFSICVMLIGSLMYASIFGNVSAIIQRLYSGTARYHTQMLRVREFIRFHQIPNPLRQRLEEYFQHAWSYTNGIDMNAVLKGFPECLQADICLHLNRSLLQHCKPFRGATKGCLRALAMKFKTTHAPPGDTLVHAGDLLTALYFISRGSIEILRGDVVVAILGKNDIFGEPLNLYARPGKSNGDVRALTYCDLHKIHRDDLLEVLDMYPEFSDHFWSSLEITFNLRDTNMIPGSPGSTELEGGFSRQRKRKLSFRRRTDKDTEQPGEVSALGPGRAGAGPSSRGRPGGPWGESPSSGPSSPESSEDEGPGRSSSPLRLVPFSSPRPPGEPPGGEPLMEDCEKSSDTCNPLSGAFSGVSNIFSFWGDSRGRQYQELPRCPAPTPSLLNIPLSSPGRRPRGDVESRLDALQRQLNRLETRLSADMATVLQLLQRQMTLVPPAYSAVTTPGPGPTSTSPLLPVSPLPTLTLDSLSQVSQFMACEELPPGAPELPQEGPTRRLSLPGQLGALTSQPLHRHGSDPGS
row,Compound,"hERG current change (%, negative = inhibition) at 10uM"
1,COC(=O)c1c(NC(=O)/C=C/C(=O)O)sc(C)c1-c1ccc(C(C)C)cc1,6.58%
2,O=C(NC1CCCCCC1)C(Cc1ccccc1)n1cccc1 (stereo not drawn),-2.45%
3,COc1ccc(Cn2c(CO)cnc2SCC(=O)Nc2cccc(NC(C)=O)c2)cc1,13.7%
4,O=C(Nc1ccccc1)c1snc2c(=O)[nH]cnc12,20.3%
5,C/C(=C/C#N)Nc1ccc(C)cc1,18.3%
6,CCCCn1c(N)c(N(CC(C)C)C(=O)c2cc(S(=O)(=O)N3CCOCC3)ccc2Cl)c(=O)[nH]c1=O,22.2%
7,CCOc1ccc(Oc2nc(Nc3ccc(C)cc3)nc(N(C)C)n2)nn1,13.2%
8,CC(=O)Nc1ccc(N2CCN(C(=O)c3cccs3)CC2)cc1,2.48%
9,CC1C(=O)N2CCCc3cc(S(=O)(=O)N4CCN(c5ccccc5F)CC4)cc1c32 (stereo not drawn),-8.8%
10,O=C(N/N=C/c1ccco1)C1CC(=O)N(c2ccccc2)C1 (stereo not drawn),-2.52%
11,CC(=O)C1=C(C)NC(C)=C(C(C)=O)C1c1cccs1,5.62%
12,CSC1=NNC(c2ccc(C(C)(C)C)cc2)=NN1,-21.3%
13,Cc1nc(C)c(C(=O)NCc2ccccc2Cl)o1,-2%
14,Cc1ccccc1N1C(=O)c2cccc3cccc(c23)C1=O,-7.92%
15,COc1ccc(-n2c(CNC(=O)COc3ccc(Cl)cc3Cl)n[nH]c2=S)cc1,-34.2%
16,Cc1cc(Cl)ccc1OC(C)C(=O)Nc1cnn(CCCC(=O)O)c1 (stereo not drawn),27.1%
17,O=C(NCc1ccccn1)C1(C(F)(F)F)C/C(=C\CCO)CCCO1 (stereo not drawn),6.37%
18,CCN(CC)CCC(c1cc(OC)c(OC)c(OC)c1)c1c(OC)cc(OC)c2c(C)cc(=O)oc12 (stereo not drawn),-48.5%
19,COCC(=O)Nc1ccc(S(=O)(=O)NCCc2ccccc2)cc1,-16.5%
20,O=C(Nc1ccc(S(=O)(=O)Nc2nccs2)cc1)/C(=C/c1ccccc1Cl)NC(=O)c1ccccc1,8.97%
21,CCSc1nc2ccccc2n1Cc1ccccc1F,-10.6%

row,Compound,"hERG current change (%, negative = inhibition) at 10uM"
1,Cc1nn(C)cc1CN1CCC(CO)(CCOc2ccccc2)CC1,-22.6%
2,O=C(c1ccc(S(=O)(=O)N2CCCCCC2)cc1)N1CCN(c2ccccc2)CC1,-6.96%
3,CCCNC(=O)c1ccc(Cl)cc1Cl,12.9%
4,NC(=O)C1CCN(C(=O)C2CC(=O)N(Cc3ccccc3)C2)CC1 (stereo not drawn),-2.41%
5,O=S(=O)(c1cccs1)N1CCN(CC(O)COc2cccc(Br)c2)CC1 (stereo not drawn),-61.1%
6,CC(C(N)=O)N1C(=O)c2cccc3cccc1c23 (stereo not drawn),-0.963%
7,CC(Sc1ncnc2ccccc12)C(=O)Nc1ccc2c(c1)OCCO2 (stereo not drawn),5.25%
8,COC(=O)CSc1nnc(-c2ccco2)n1-c1ccc(C)cc1,-24.2%
9,O=c1c2ccccc2nc(/C=C/c2ccccc2O)n1-c1ccccc1O,17.6%
10,COc1ccc(Br)cc1C(=O)Nc1ccccc1N1CCN(C(=O)c2ccccc2)CC1,-52.4%
11,CS(=O)(=O)c1ccc2nc(NC(=O)c3ccc(NS(=O)(=O)c4cccc([N+](=O)[O-])c4)cc3)sc2c1,10.6%
12,O=[N+]([O-])c1ccc(CSc2nnc3ccccn23)cc1,-57.2%
13,O=C(c1ccc(CSc2ccc(Cl)cc2)cc1)N1CCCC1,0.0198%
14,O=C(CCc1nnc2n(Cc3ccc(Cl)cc3)c(=O)c3ccccc3n12)NCCCN1CCOCC1,-59.9%
15,Cc1ccc(NC(=O)CSC2=C(C#N)C(c3ccco3)C3=C(CC(C)(C)CC3=O)N2)cc1 (stereo not drawn),20.4%
16,CCCCN(C(=O)CN1C(=O)C2CC=CCC2C1=O)c1c(N)n(CCC)c(=O)[nH]c1=O (stereo not drawn),4.14%
17,Cc1ccc(/C(O)=C2\C(=O)C(=O)N(Cc3cccnc3)C2c2ccccc2[N+](=O)[O-])cc1 (stereo not drawn),3.46%
18,COc1c(C)cccc1C(=O)Nc1ccc(CN2CCOCC2)cc1,0.813%
19,COC(=O)c1c(NC(=O)Cn2cnc([N+](=O)[O-])n2)sc2c1CCC(C)C2 (stereo not drawn),7.13%
20,CCOC(=O)c1c(NC(=O)C2C3CCC(O3)C2C(=O)O)sc(C)c1-c1ccc(F)cc1 (stereo not drawn),-3.23%
21,COc1cc(/C=N/N=C(/N)c2nonc2N)cc(Br)c1OCc1cccc(C)c1,-6.25%

# From publication PMC4336329 (PLoS ONE, 2015)
